85 compounds from ChEMBL document CHEMBL4888484, “Replenishing the malaria drug discovery pipeline: Screening and hit evaluation of the MMV Hit Generation Library 1 (HGL1) against asexual blood stage Plasmodium falciparum ,using a nano luciferase reporter read-out” (2022) can be followed below.

About 540 (0.36%) of roughly 150,000 compounds showed an effect of 50% or more. Some of the results follow.

This assay has as its system Plasmodium falciparum. Briefly: Primary screen in NF54 nanoGlo assay, in single point, at 2uM, 72h; a lower Z score goes with more inhibition. As to conditions: timepoint 72 hour. The assay is classed as functional, Erythrocyte.
Usually % Inhibition stands for the relative decrease from the control value, in per cent. With `CCS(=O)(=O)N1CCCc2cc(C(=O)N3CCOCC3)ccc21`, the “% Inhibition” value was 15% and the Z score was -1.71.
The like results for `COc1cncc(C(NC(=O)c2sccc2N)[C@H]2C[C@H](O)C2)c1` (stereo not given in full) were, in that order, -1% and 0.13.
The like results for `CC(=O)Nc1cc(Cl)c(Cl)cc1N` were, in that order, 0% and -0.05.
For `COc1ccc(C2C(C(=O)O)c3ccccc3C(=O)N2C2CCCCC2)cc1` (stereo not given), the “% Inhibition” value amounted to 36% and the Z score is reported as -4.59.
As for `COCCc1cccc(-c2ccns2)c1`, the “% Inhibition” value is recorded as -5% and the Z score is 0.73.
For `c1cc(-n2cnnn2)ccc1NCc1nnc(C2CC2)o1`, in that order: -7% and 1.22.
The like results for `C[C@H](NC(=O)OC(C)(C)C)c1ccc(C(=O)O)cc1` were, in that order, -5% and 0.97.
On to `Cc1nc[nH]c1CN(C)CCC[C@H]1CCCO1`, for which the “% Inhibition” value is reported as -1% and the Z score worked out at 0.21.
For `CC(C)CC(=O)N1CCC2(CC1)N[C@@H](Cc1ccccc1)C(=O)N2CCc1ccccn1`, in that order: -13% and 1.76.
`Cc1ccc(C(=O)NC2(CN3CCOCC3)CCCC2)n1C`: the “% Inhibition” value is reported as -3% and the Z score was found to be 0.63.
With `CN1C(=O)[C@@H](c2ccccc2)CC12CCN(C(=O)c1cccc(O)c1)CC2`, the “% Inhibition” value came to 6% and the Z score was -0.96.
For `Cc1cc(CNC(=O)N2CC[C@H](Cc3ccncc3)C2)ccc1F`, in that order: -2% and 0.39.
In the case of `Cn1c(CN2CCO[C@H](C(N)=O)C2)cc2ccccc21`, the “% Inhibition” value was -16% and the Z score is 1.97.
As to `c1ccc2oc(N3CCOC[C@H](Oc4cnccn4)C3)nc2c1`, the “% Inhibition” value is given as 11% and the Z score is recorded as -1.29.
As for `Cc1cccc(CC(=O)N(CCC#N)C2CCOCC2)c1`, the “% Inhibition” value was determined as 1% and the Z score is given as -0.14.
The like results for `O=C(C(Cc1ccccc1)N1C(=O)C2C3CCC(C3)C2C1=O)N1CCOCC1` (stereo not given) were, in that order, 6% and -0.67.
For `CN(Cc1cccnc1)Cc1cccc2nonc12`, in that order: -4% and 0.49.
For `CC(C)(C)OC(=O)N1CCOc2ccc(NC(=O)Cn3ncn4nccc4c3=O)cc2C1`, the “% Inhibition” value is -2% and the Z score came to 0.35.
`CC1=NNC(=O)C1CCNC(=O)c1ccc(OC2CC2(F)F)cc1` (stereo not given): the “% Inhibition” value was 7% and the Z score is reported as -0.89.
As for `O=c1ccn(Cc2cc(Cl)cc3c2OCOC3)c2ccsc12`, the “% Inhibition” value is -6% and the Z score was found to be 0.6.
As for `CC1(C)C[C@@H]2C[C@@](C)(CN2C(=O)Nc2cccnc2O)C1`, the “% Inhibition” value is given as -8% and the Z score is reported as 1.47.
In the case of `O=C(NCc1nccn1CCCc1ccccc1)[C@@H]1COCCO1`, the “% Inhibition” value is 30% and the Z score is on record as -3.04.
Consider `Cc1nc([C@@H]2CCCN2S(=O)(=O)CCC2CCCCC2)[nH]c1C`, for which the “% Inhibition” value was -16% and the Z score is given as 2.98.
For `Cc1cc2n(n1)CCCN(C(=O)c1cc(=O)[nH]c3ccccc13)C2`, in that order: -7% and 1.23.
The like results for `O=C1c2ccccc2C(=O)N1Cc1nc(-c2cccnc2)no1` were, in that order, -9% and 1.34.
For `CCOC(=O)CC1(S(=O)(=O)c2ccc(F)cc2)CCN(C[C@H]2CCOC2)CC1`, in that order: 1% and -0.23.
Consider `C/C=C(\C)CN1CC[C@H](CNC(=O)c2ccc3c(c2)OCCO3)C1`, for which the “% Inhibition” value was -8% and the Z score was 1.61.
The like results for `CC(C)c1noc(N2CCC[C@H](CN(C)S(C)(=O)=O)C2)n1` were, in that order, 0% and -0.04.
As to `NC(=O)[C@@H]1CCCN1C(=O)CC1CS(=O)(=O)c2ccccc2O1` (stereo not given in full), the “% Inhibition” value was -4% and the Z score is recorded as 0.83.
The like results for `Cn1ccc2ccc(NCC(=O)N3CCOCC3)cc2c1=O` were, in that order, 2% and -0.25.
The like results for `COc1cccc(C(=O)NCC2=CCN([C@@H]3C=CCCC3)CC2)c1` were, in that order, -15% and 2.19.
The like results for `CN1CCc2ncnc(N3CCN(c4nccs4)CC3)c2C1` were, in that order, -7% and 1.06.
As to `Cc1ccc(C)c(N2CCN(S(=O)(=O)c3cc(C(=O)N4CCCCCC4)cs3)CC2)c1`, the “% Inhibition” value is -7% and the Z score came to 1.2.
For `Cc1cnc(-c2ccc(C(C)(C)C)cc2)nc1N`, in that order: -1% and 0.11.
For the compound `CO[C@H]1CN(C)C[C@@H]1NS(=O)(=O)c1cc(C)sc1C`, the “% Inhibition” value is given as -2% and the Z score turned out to be 0.19.
For `COCCN1CCC[C@@]2(CCN(Cc3c(F)cccc3Cl)C2)C1`, in that order: -9% and 1.07.
Regarding `CN=C(NCc1ccccn1)N[C@@H](C)CCc1ccccc1`, the “% Inhibition” value is reported as -4% and the Z score was found to be 0.37.
Take `Cc1cc(Cl)ccc1CNC[C@]1(O)CCS(=O)(=O)C1`: the “% Inhibition” value is -5% and the Z score came out at 1.04.
The like results for `O=C(C[C@H](c1c[nH]c2ccccc12)C1CCCCC1)NCCN1CCOCC1` were, in that order, -13% and 2.39.
The like results for `O=C(NOCc1ccccc1)N1CCN(Cc2ccncc2)CC1` were, in that order, -10% and 2.07.
With `Cc1cc(C)cc(NC(=O)Nc2cc3c(cc2N2CCCC2)n(C)c(=O)n3C)c1`, the “% Inhibition” value came out at 0% and the Z score is given as -0.04.
As to `C=CCN(C)C(=O)NCc1ccc(Br)c(F)c1`, the “% Inhibition” value is 2% and the Z score is -0.18.
As for `O=C(NCC1(c2cccs2)CCCCC1)c1snc(O)c1Cl`, the “% Inhibition” value is -14% and the Z score is 2.04.
As for `O=C1NCCCc2[nH]c(-c3nc(-c4ccccc4)cs3)nc21`, the “% Inhibition” value is on record as -14% and the Z score stood at 1.37.
For `O=C(NCc1nnc2n1CC[C@H](C(F)(F)F)C2)c1cc(Cl)sc1Cl`, in that order: -18% and 2.26.
On to `Cc1ocnc1C(=O)N1CCC[C@@]2(CCC(=O)N(CCc3c[nH]cn3)C2)C1`, for which the “% Inhibition” value is given as 2% and the Z score is listed as -0.25.
For the compound `CC(C)c1cc(C(=O)NCc2snnc2C(C)C)nc(N)n1`, the “% Inhibition” value is recorded as -16% and the Z score was 1.8.
For the compound `Cn1nc([C@@H]2CCCCN2S(=O)(=O)c2ccc(F)cc2)c2c1CCOC2`, the “% Inhibition” value is given as -13% and the Z score was 1.28.
For `CNC(=O)c1nn[nH]c1NS(=O)(=O)c1ccc(C)cc1C`, in that order: -14% and 1.94.
For the compound `COc1ccc(-c2nc(C)c(C(=O)N(C)c3cn[nH]c3)s2)cc1OC`, the “% Inhibition” value was -1% and the Z score is reported as 0.21.
Take `COCc1ncc(C)n1CC1CN(C(=O)CCc2ccccc2)C1`: the “% Inhibition” value was -10% and the Z score was found to be 1.37.
With `CCc1[nH]ncc1C(=O)N1CC(Cc2ccc(F)c(F)c2)C1`, the “% Inhibition” value is given as -26% and the Z score is on record as 2.64.
Consider `N#Cc1ccc(O)c(NC(=O)c2[nH]nc3c2CCCC3)c1`, for which the “% Inhibition” value was -10% and the Z score was 1.44.
For `Clc1cccc(N2CCN(Cn3nccc3-c3cccnc3)CC2)c1`, in that order: 1% and -0.12.
As to `CC(C)(O)CN1CCN(C(=O)CCCc2ccccn2)CC1`, the “% Inhibition” value is -8% and the Z score is reported as 1.22.
On to `CCn1cnnc1CNS(=O)(=O)C1CC1c1cccc(F)c1` (stereo not given), for which the “% Inhibition” value was -2% and the Z score stood at 0.18.
As for `COc1cc(C(=O)O)ccc1NC(=O)[C@H]1CC1(C)C`, the “% Inhibition” value was -14% and the Z score was 1.46.
For `CCOc1ccc(-c2[nH]c3c(c2-c2ccc(OC)cc2)c(=O)n(C)c(=O)n3C)cc1`, in that order: 5% and -0.72.
On to `CC(C)(C)OC(=O)NC1CCC(=O)CC1`, for which the “% Inhibition” value is -7% and the Z score was found to be 0.98.
The like results for `FC(F)(F)c1ccccc1CNc1ccc2c(c1)OCO2` were, in that order, -8% and 1.52.
For `CN1CCCN(c2cnn(Cc3ccc4ccccc4n3)c(=O)c2)CC1`, in that order: -6% and 0.81.
Regarding `O=C(NCc1ccccn1)Nc1ccn(-c2ccccc2)n1`, the “% Inhibition” value amounted to 1% and the Z score is listed as -0.17.
For `Cc1c(CN[C@@H](CC(C)C)C(=O)OC(C)(C)C)cc(C#N)n1C`, in that order: -7% and 0.61.
For `C[C@H](OC(=O)COC(C)(C)C)c1ccccn1`, in that order: -5% and 0.42.
The like results for `CN(C)C(=O)C1CCN(C(=O)Nc2nnc(CC3CCCC3)s2)CC1` were, in that order, -3% and 0.52.
For `CCN(CC(=O)c1c[nH]c(C(=O)N2CCCC2)c1)Cc1ccco1`, the “% Inhibition” value is reported as -14% and the Z score came out at 1.27.
As to `Cc1ccc(C(=O)N[C@@H](CC(C)C)c2nnc3ccccn23)c(-n2cnnn2)c1C`, the “% Inhibition” value is on record as -4% and the Z score is reported as 0.52.
For `Cc1cc(C(=O)N2CC(Oc3ccccc3-c3nc(-c4cnccn4)no3)C2)nn1C`, in that order: -22% and 2.51.
For `Cc1ccc(C)c(-n2cnc3cc(C(=O)N4C5COCC4C5)ccc32)c1`, in that order: -3% and 0.43.
For `Cc1nc(NC2CCC(NC(=O)C3CCCC3)CC2)c2cnn(-c3cccc(Cl)c3)c2n1` (stereo not given), in that order: 4% and -0.41.
Consider `N#Cc1ccccc1-c1nc2cc3[nH]c(=O)[nH]c3cc2[nH]1`, for which the “% Inhibition” value was 4% and the Z score was -0.79.
In the case of `Cn1c(=O)c2c(c(-c3ccccc3)cn2C)n(CC(=O)NC2CCCC2)c1=O`, the “% Inhibition” value is -7% and the Z score turned out to be 1.02.
In the case of `CC(C)Cn1ncnc1CN[C@H]1CCc2c(O)cccc21`, the “% Inhibition” value is on record as -5% and the Z score is reported as 0.55.
As to `Cc1sc(NC(=O)COCC(=O)O)c(C(=O)NCc2cccnc2)c1-c1ccccc1`, the “% Inhibition” value was 2% and the Z score is recorded as -0.33.
For `Cc1cc(C(=O)NC2CCC(O)CC2)c(C)n1-c1ccc2c(c1)OCCO2` (stereo not given), in that order: -3% and 0.47.
As for `CC(C)(O)CCN1CCO[C@H](c2noc(-c3ccccc3)n2)C1`, the “% Inhibition” value was -6% and the Z score stood at 0.79.
As to `Cc1nc[nH]c1CN1C[C@H]2CC[C@@H](C1)N(C(=O)CCC(=O)c1ccccc1)C2`, the “% Inhibition” value is -6% and the Z score was 0.91.
Regarding `NC(=O)c1ccc(N2CCC(c3nc(C(F)(F)F)cs3)CC2)nn1`, the “% Inhibition” value is reported as -11% and the Z score came to 1.35.
For `Cc1ccc(C(=O)N/C(=N/c2cc(C)cc(C)c2)N2CCN(Cc3ccccc3F)CC2)cc1`, the “% Inhibition” value is recorded as -1% and the Z score stood at 0.24.
Turning to `Cc1nn(C)c(C)c1C1OCCC1CNCc1cnn2ccccc12` (stereo not given), the “% Inhibition” value was -4% and the Z score was determined as 0.63.
The like results for `O=C(CCn1cnccc1=O)N1CCCC12CCCCC2` were, in that order, -15% and 2.
The like results for `O=C1[C@H](Cc2ccccc2)NC2(CCN(S(=O)(=O)c3cccc4cccnc34)CC2)N1CCc1ccccn1` were, in that order, -17% and 1.51.
The like results for `C=CC(C)(CC)C(=O)N1CCN(CCOCC)C(C)C1` (stereo not given) were, in that order, -3% and 0.37.
Consider `Cc1cc(N2C(=O)N(C)C(C)(C)C2=O)nn1C(C)C`, for which the “% Inhibition” value is listed as -8% and the Z score turned out to be 1.46.
For the compound `CCC(C)(C)c1cn(CCN2CC3CCC(C2)O3)nn1`, the “% Inhibition” value is recorded as 6% and the Z score was -0.78.
